Measurements: a collection of fitness landscapes (doi:10.1126/science.1257360)
Some of the results follow.

B1: PhoQ; a variant is named by its letters at X, in order, P23837 (parent)
chain: MKKLLRLFFPLSLRVRFLLATAAVVLVLSLAYGMVALIGYSVSFDKTTFRLLRGESNLFYTLAKWENNKLHVELPENIDKQSPTMTLIYDENGQLLWAQRDVPWLMKMIQPDWLKSNGFHEIEADVNDTSLLLSGDHSIQQQLQEVREDDDDAEMTHSVAVNVYPATSRMPKLTIVVVDTIPVELKSSYMVWSWFIYVLSANLLLVIPLLWVAAWWSLRPIEALAKEVRELEEHNRELLNPATTRELTSLVRNLNRLLKSERERYDKYRTTLTDLTHSLKTPLXXLQXXLRSLRSEKMSVSDAEPVMLEQISRISQQIGYYLHRASMRGGTLLSRELHPVAPLLDNLTSALNKVYQRKGVNISLDISPEISFVGEQNDFVEVMGNVLDNACKYCLEFVEISARQTDEHLYIVVEDDGPGIPLSKREVIFDRGQRVDTLRPGQGVGLAVAREITEQYEGKIVAGESMLGGARMEVIFGRQHSAPKDE

Variants of: B1
Assay: enrichment ratio after two sorts for PhoP signalling (ratio (wild type AVST 3.29)); higher = more functional
Conditions: with PhoP (E. coli)

GRQV and KAET cannot be ordered by enrichment ratio: ≤ 0.25 for the first, ≤ 0.25 for the second.

MLKD and SFKL cannot be ordered by enrichment ratio: ≤ 0.25 for the first, ≤ 0.25 for the second.

KYWQ and FHRA cannot be ordered by enrichment ratio: ≤ 0.25 for the first, ≤ 0.25 for the second.

AFDM and DNAY cannot be ordered by enrichment ratio: ≤ 0.25 for the first, ≤ 0.25 for the second.

GKRK and TKNF cannot be ordered by enrichment ratio: ≤ 0.25 for the first, ≤ 0.25 for the second.

VTQS and EIDV cannot be ordered by enrichment ratio: ≤ 0.25 for the first, ≤ 0.25 for the second.

FHPC and KNWT cannot be ordered by enrichment ratio: ≤ 0.25 for the first, ≤ 0.25 for the second.

PWNH and GCRQ cannot be ordered by enrichment ratio: ≤ 0.25 for the first, ≤ 0.25 for the second.

KPPK and LAMP cannot be ordered by enrichment ratio: ≤ 0.25 for the first, ≤ 0.25 for the second.

RATE and YHRS cannot be ordered by enrichment ratio: ≤ 0.25 for the first, ≤ 0.25 for the second.

FLNC and IWKY cannot be ordered by enrichment ratio: ≤ 0.25 for the first, ≤ 0.25 for the second.

YSHH and AHTD cannot be ordered by enrichment ratio: ≤ 0.25 for the first, ≤ 0.25 for the second.

IVGD and HDCI cannot be ordered by enrichment ratio: ≤ 0.25 for the first, ≤ 0.25 for the second.

MYLP and NGSQ cannot be ordered by enrichment ratio: ≤ 0.25 for the first, ≤ 0.25 for the second.

YNME and YHTS cannot be ordered by enrichment ratio: ≤ 0.25 for the first, ≤ 0.25 for the second.

ELPM and QYFS cannot be ordered by enrichment ratio: ≤ 0.25 for the first, ≤ 0.25 for the second.

RAAG and YAYL cannot be ordered by enrichment ratio: ≤ 0.25 for the first, ≤ 0.25 for the second.

FKCY and VHSK cannot be ordered by enrichment ratio: ≤ 0.25 for the first, ≤ 0.25 for the second.

MLSG and THEV cannot be ordered by enrichment ratio: ≤ 0.25 for the first, ≤ 0.25 for the second.

EFFK and GQEW cannot be ordered by enrichment ratio: ≤ 0.25 for the first, ≤ 0.25 for the second.

GMWN and KGQS cannot be ordered by enrichment ratio: ≤ 0.25 for the first, ≤ 0.25 for the second.

QVIQ and IVAC cannot be ordered by enrichment ratio: ≤ 0.25 for the first, ≤ 0.25 for the second.

NSLA and NCVK cannot be ordered by enrichment ratio: ≤ 0.25 for the first, ≤ 0.25 for the second.

FAYL and LWNP cannot be ordered by enrichment ratio: ≤ 0.25 for the first, ≤ 0.25 for the second.

ESYA and RKAW cannot be ordered by enrichment ratio: ≤ 0.25 for the first, ≤ 0.25 for the second.

SDVE and FCWK cannot be ordered by enrichment ratio: ≤ 0.25 for the first, ≤ 0.25 for the second.

Going from GISH to WNPE, the enrichment ratio falls from 9.65 to ≤ 0.25.

GPCA and NHAR cannot be ordered by enrichment ratio: ≤ 0.25 for the first, ≤ 0.25 for the second.

PFCT and NNPY cannot be ordered by enrichment ratio: ≤ 0.25 for the first, ≤ 0.25 for the second.

Compared with TSYC, HPYL is lower in enrichment ratio: 7.47 for the first, ≤ 0.25 for the second.

First: EMEF
Second: TNMI
The enrichment ratio of the first is lower: ≤ 0.25 for the first, 11.7 for the second.

First: SNVA
Second: NHGE
The enrichment ratio of the first is higher: 6.33 for the first, ≤ 0.25 for the second.

First: GGKY
Second: SACY
The enrichment ratio of the first is lower: ≤ 0.25 for the first, 8.86 for the second.

NAIM and RHCC cannot be ordered by enrichment ratio: ≤ 0.25 for the first, ≤ 0.25 for the second.

HQDS and YYDI cannot be ordered by enrichment ratio: ≤ 0.25 for the first, ≤ 0.25 for the second.

HMQW and PGCQ cannot be ordered by enrichment ratio: ≤ 0.25 for the first, ≤ 0.25 for the second.

PKQV and NSLD cannot be ordered by enrichment ratio: ≤ 0.25 for the first, ≤ 0.25 for the second.

TNQK and EAST cannot be ordered by enrichment ratio: ≤ 0.25 for the first, ≤ 0.25 for the second.

IPGR and YDNS cannot be ordered by enrichment ratio: ≤ 0.25 for the first, ≤ 0.25 for the second.

ECGD and ILCY cannot be ordered by enrichment ratio: ≤ 0.25 for the first, ≤ 0.25 for the second.

HTKF and GFRI cannot be ordered by enrichment ratio: ≤ 0.25 for the first, ≤ 0.25 for the second.

RIMM and IYAV cannot be ordered by enrichment ratio: ≤ 0.25 for the first, ≤ 0.25 for the second.

FQIH and QKKH cannot be ordered by enrichment ratio: ≤ 0.25 for the first, ≤ 0.25 for the second.

IISQ and WHSH cannot be ordered by enrichment ratio: ≤ 0.25 for the first, ≤ 0.25 for the second.

WDYS and WTKQ cannot be ordered by enrichment ratio: ≤ 0.25 for the first, ≤ 0.25 for the second.

FSCR and ADPH cannot be ordered by enrichment ratio: ≤ 0.25 for the first, ≤ 0.25 for the second.

QFHV and DDPA cannot be ordered by enrichment ratio: ≤ 0.25 for the first, ≤ 0.25 for the second.

PTRL and AHPH cannot be ordered by enrichment ratio: ≤ 0.25 for the first, ≤ 0.25 for the second.

MHMW and WRAC cannot be ordered by enrichment ratio: ≤ 0.25 for the first, ≤ 0.25 for the second.

First: LDNT
Second: SNVV
The enrichment ratio of the first is lower: 2.01 for the first, 7.87 for the second.

ATHH and WGWI cannot be ordered by enrichment ratio: ≤ 0.25 for the first, ≤ 0.25 for the second.

PQVA and LKNI cannot be ordered by enrichment ratio: ≤ 0.25 for the first, ≤ 0.25 for the second.

Compared with DLDM, SSLG is higher in enrichment ratio: ≤ 0.25 for the first, 16.1 for the second.

LPTI and DRST cannot be ordered by enrichment ratio: ≤ 0.25 for the first, ≤ 0.25 for the second.

PDIH and QTLC cannot be ordered by enrichment ratio: ≤ 0.25 for the first, ≤ 0.25 for the second.

VRNH and IHLG cannot be ordered by enrichment ratio: ≤ 0.25 for the first, ≤ 0.25 for the second.

QYPC and PSFI cannot be ordered by enrichment ratio: ≤ 0.25 for the first, ≤ 0.25 for the second.

SYMC and PVQA cannot be ordered by enrichment ratio: ≤ 0.25 for the first, ≤ 0.25 for the second.

Going from LCKY to SDLG, the enrichment ratio rises from ≤ 0.25 to 5.16.

GPFL and MYFI cannot be ordered by enrichment ratio: ≤ 0.25 for the first, ≤ 0.25 for the second.

Compared with VWTF, QNGS is higher in enrichment ratio: ≤ 0.25 for the first, 3.28 for the second.

QQKA and RFHF cannot be ordered by enrichment ratio: ≤ 0.25 for the first, ≤ 0.25 for the second.

First: EHGR
Second: FSIL
The enrichment ratio of the first is lower: ≤ 0.25 for the first, 4.53 for the second.

FCRL and YIRT cannot be ordered by enrichment ratio: ≤ 0.25 for the first, ≤ 0.25 for the second.

VWDA and FDHV cannot be ordered by enrichment ratio: ≤ 0.25 for the first, ≤ 0.25 for the second.

DICP and SQID cannot be ordered by enrichment ratio: ≤ 0.25 for the first, ≤ 0.25 for the second.

PCSA and KAQC cannot be ordered by enrichment ratio: ≤ 0.25 for the first, ≤ 0.25 for the second.

LFED and HGTI cannot be ordered by enrichment ratio: ≤ 0.25 for the first, ≤ 0.25 for the second.

Compared with WNSE, QASG is higher in enrichment ratio: ≤ 0.25 for the first, 17.4 for the second.

RSTA and LGAC cannot be ordered by enrichment ratio: ≤ 0.25 for the first, ≤ 0.25 for the second.

AQIK and WQMG cannot be ordered by enrichment ratio: ≤ 0.25 for the first, ≤ 0.25 for the second.

HTNT and GVRT cannot be ordered by enrichment ratio: ≤ 0.25 for the first, ≤ 0.25 for the second.

DKFN and DLDR cannot be ordered by enrichment ratio: ≤ 0.25 for the first, ≤ 0.25 for the second.

HWFI and VWTA cannot be ordered by enrichment ratio: ≤ 0.25 for the first, ≤ 0.25 for the second.

HICY and TRFY cannot be ordered by enrichment ratio: ≤ 0.25 for the first, ≤ 0.25 for the second.

SMFI and SCKF cannot be ordered by enrichment ratio: ≤ 0.25 for the first, ≤ 0.25 for the second.

With EIAI the enrichment ratio was ≤ 0.25.
